According to patent US20240417452A1 (BIOTHEUS, published 2024):

T1: mouse MSLN (mMSLN, Uniprot ID: Q61468) on CHO cells (mouse, UniProt Q61468 298-600)
T1 construct: whole, on cells; also called CHO-mMSLN cells
T1 sequence (looked up): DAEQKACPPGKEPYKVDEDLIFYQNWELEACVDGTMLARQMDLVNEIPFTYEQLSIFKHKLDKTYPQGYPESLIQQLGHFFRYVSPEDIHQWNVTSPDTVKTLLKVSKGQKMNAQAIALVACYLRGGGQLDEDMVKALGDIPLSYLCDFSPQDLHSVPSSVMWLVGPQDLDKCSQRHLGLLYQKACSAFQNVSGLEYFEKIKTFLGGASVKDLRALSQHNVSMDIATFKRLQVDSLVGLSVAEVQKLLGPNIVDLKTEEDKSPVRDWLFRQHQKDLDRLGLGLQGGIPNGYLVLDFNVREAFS


Columns and labels:
[1] = target: T2, human MSLN (Uniprot ID: Q13421), soluble protein (human, UniProt Q13421 296-580); test: BLI (ForteBio), method of Example 3
T2 construct: also called mesothelin

[2] = target: T2, human MSLN (Uniprot ID: Q13421), …; test: blocking ELISA: human MSLN coated, serially diluted antibody, then 1 ug/mL Biotin-CA125 as competitor, SA-HRP
[3] = target: T3, monkey MSLN (cyMSLN, Uniprot ID: F6Q1U7) on CHO cells (monkey); test: flow cytometry on CHO-cyMSLN cells
T3 construct: whole, on cells; also called CHO-cyMSLN cells

[4] = target: T1, mouse MSLN (mMSLN, Uniprot ID: Q61468) …; test: flow cytometry on CHO-mMSLN cells
[5] = target: T4, human MSLN (Uniprot ID: Q13421) overexpressed on CHO cells (human, UniProt Q13421 296-598); test: flow cytometry on CHO-hMSLN cells
T4 construct: whole, on cells; also called CHO-hMSLN cells; CHO-MSLN cells

[6] = target: T2, human MSLN (Uniprot ID: Q13421), …; test: BLI (ForteBio), antibody on AHQ sensor, 100 nM human MSLN in solution, 1:1 model
[7] = target: T4, human MSLN (Uniprot ID: Q13421) …; test: flow cytometry on CHO-hMSLN cells, anti-human IgG-Fc PE

| Binder | Kd [1] [nM] | koff [1] [s⁻¹] | kon [1] [M⁻¹ s⁻¹] | EC50 [2] [nM] | EC50 [3] [nM] | EC50 [4] [nM] | EC50 [5] [nM] | Kd [6] [nM] | koff [6] [s⁻¹] | kon [6] [M⁻¹ s⁻¹] | EC50 [7] [nM] |
| --- | --- | --- | --- | --- | --- | --- | --- | --- | --- | --- | --- |
| humanized anti-MSLN nanobody HZ-P-YE-17-02 (VHH fused to human IgG1 Fc) (Fc fusion, also called HZ-YE-17-02) QVQLVESGGGVVQPGGSLRLSCATSGTIFSRNGMGWFRQAPGKQRELVARILNDGTTMYADSVKGRFTISRDNSKNTVYLQMNSLKPEDTAVYYCGYSDYRGTDYWGQGTQVTVSS[human IgG1 Fc with changes omitted] | 2.2 | 0.000888 | 403000 | 2.63 | 0.63 | 7.29 | 0.551 | – | – | – | – |
| anti-MSLN nanobody YE-17 (VHH fused to human IgG1 Fc) (Fc fusion, No linker between VHH and Fc is stated; also called anti-MSLN antibody YE-17) QVQLQESGGGLVQPGGSLRLSCATSGTIFSRNGMGWFRQAPGEQRELVARILNDGTTMYADSVKGRFTISRDNAKNTVLLQMNSLKPEDTAVYYCGYSDYRGTDYWGQGTQVTVSS[human IgG1 Fc with changes omitted] | – | 0.00059 | 421000 | 5.96 | 0.716 | 6.31 | 0.305 | 0.188 | 0.000104 | 550000 | 0.965 |
| humanized anti-MSLN nanobody HZ-P-YE-17-01 (VHH fused to human IgG1 Fc) (Fc fusion, also called HZ-YE-17-01) QVQLVESGGGVVQPGGSLRLSCATSGTIFSRNGMGWFRQAPGEQRELVARILNDGTTMYADSVKGRFTISRDNSKNTVLLQMNSLKPEDTAVYYCGYSDYRGTDYWGQGTQVTVSS[human IgG1 Fc with changes omitted] | 0.807 | 0.000325 | 402000 | 3.34 | 1.24 | 13 | 0.477 | – | – | – | – |
| humanized anti-MSLN nanobody HZ-P-YE-17-03 (VHH fused to human IgG1 Fc) (Fc fusion, also called HZ-YE-17-03) QVQLVESGGGVVQPGGSLRLSCATSGTIFSRNGMGWFRQAPGKGLELVARILNDGTTMYADSVKGRFTISRDNSKNTVYLQMNSLKPEDTAVYYCGYSDYRGTDYWGQGTQVTVSS[human IgG1 Fc with changes omitted] | 19.1 | 0.0064 | 336000 | 4.75 | 0.708 | 22.4 | 0.241 | – | – | – | – |
| humanized anti-MSLN nanobody HZ-P-YE-17-04 (VHH fused to human IgG1 Fc) (Fc fusion, also called HZ-YE-17-04) QVQLVESGGGVVQPGGSLRLSCATSGTIFSRNGMGWFRQAPGKGLELVARILNDGTTMYADSVKGRFTISRDNSKNTVYLQMNSLRAEDTAVYYCGYSDYRGTDYWGQGTQVTVSS[human IgG1 Fc with changes omitted] | 19.3 | 0.00636 | 329000 | 3.23 | 1.01 | – | 0.34 | – | – | – | – |
